# PubChem BioAssay AID686979 (National Center for Advancing Translational Sciences (NCATS), 2013)
# “And” between values parts separate entries of the source, which are not always exact repeats. Equal entries are not always repeated. Among all 420,000 compounds or so, about 50,000 (12%) were called active. This list was built around the results that the source calls inconclusive (neither active nor inactive); the mix of calls is not that of the screen. Calls come from the whole dose curve; as a rule, active = well fitted inhibition curve with a large enough effect; inconclusive = small, poorly fitted or top-dose-only effect; inactive = flat fitted curve, though single readings scatter. Potencies of inconclusive entries are left out as doubtful fits.
# Test: qHTS for Inhibitors of human tyrosyl-DNA phosphodiesterase 1 (TDP1): qHTS in cells in presence of CPT; note: nearly all actives have a fitted effect of over 55% in size
# Conditions: chicken DT40 Tdp1-/-;hTDP1 cells + 20 nM CPT, ATP luminescence, 48 h; activity change, negative = growth inhibition: at 46.2 µM (top of the series) unless noted
# Outline: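 Chicken DT40 Tdp1-/- cells complemented with human TDP1, 400 cells/well, exposed to compounds plus 20 nM camptothecin for at least 48 h at 37 C; viability read as ATP content by CellTiter-Glo luminescence.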
# % is set by controls: 0 for no effect and ±100 for the full control effect; potency is the fitted concentration of half-maximal effect; tags give direction and shape of the fitted curve.
Compound,Potency,"activity change, negative = growth inhibition"
N#Cc1ccc(/C=N/NC(=O)c2cc(-c3cccs3)nc3ccccc23)cc1,active: 9.2 µM,
CN(C)/C=N/c1nc(-c2ccc3c(c2)OCO3)cs1,,inactive: 0.603%
COc1ccc(NC(=O)CN2C(=O)COc3ccc(S(=O)(=O)N4CCCCCC4)cc32)cc1,active: 16.4 µM and active: 4.61 µM,
Cc1ccc(S(=O)(=O)N(C)C)cc1NC(=S)NC(=O)C12CC3CC(CC(C3)C1)C2,active: 9.2 µM,
O=[N+]([O-])c1ccc(N2CCCC2)cc1N1CCCC1,,inconclusive: -30.8% [inhibitor]
CC(=O)Nc1ccc(S(=O)(=O)NC2Cc3ccccc3C2)cc1,"inconclusive [inhibitor, single point]",
O=C(CSc1ncn[nH]1)N1CCN(c2nnc(-c3ccccc3)c3ccccc23)CC1,"inconclusive [inhibitor, partial curve]",
Cc1ccc(CCNC(=O)c2ccc3c(Cl)c4c(nc3c2)CCCC4)cc1,"inconclusive [inhibitor, single point]",
Cc1c(Cl)cccc1NC(=S)NCCCN(C)C,"inconclusive [inhibitor, single point]",
O=c1[nH]cnc2cc(-c3ccccc3)sc12,"inconclusive [inhibitor, single point]",
CN(Cc1cn(Cc2ccccc2)nc1-c1ccc2c(c1)OCO2)Cc1nccn1C,"inconclusive [inhibitor, single point]",
CCOC(=O)c1c(O)c2cc(Cl)ccc2n(CC)c1=O,,inactive: 0.93%
CS(=O)(=O)c1ccc(Cl)c(NC(=O)CCCSc2ccccc2)c1,"inconclusive [inhibitor, single point]",
CCOC(=O)c1ccc(NC(=O)CSc2nc3sc(C(=O)O)c(C)c3c(=O)[nH]2)cc1,,inactive: -15.8%
COc1ccc(S(=O)(=O)N/N=C(/C)c2ccncc2)c(OC)c1,"inconclusive [inhibitor, single point]",
COc1ccc(CNc2ncncc2-c2ccccc2OC)c(OC)c1,"inconclusive [inhibitor, single point]",
CCN(CC)S(=O)(=O)c1ccc(N2CCN(c3cccc(OC)c3)CC2)c([N+](=O)[O-])c1,active: 13 µM,
CCOC(=O)N1CCN(C(=O)c2cc3n(n2)C(C(F)(F)F)CC(c2ccc4c(c2)OCO4)N3)CC1 (stereo not given),"inconclusive [inhibitor, single point]",
O=C(CN1CCCCCCC1)Nc1cccc(Cl)c1Cl,,inactive: -26.5%
COC(=O)c1ccc(C(=O)OC)c(NC(=O)CN(C)Cc2ccc(Cl)c(Cl)c2)c1,"inconclusive [inhibitor, single point]",
N#Cc1nc(COc2ccccc2Cl)oc1NCc1ccco1,"inconclusive [inhibitor, single point]",
O=C(Nc1cccc(Cl)c1Cl)c1cc(S(=O)(=O)NCc2ccc3c(c2)OCO3)ccc1F,,inactive: 4.85%
Cc1ccc(-n2c(=O)cc(N3CCN(c4ccccc4Cl)CC3)[nH]c2=O)cc1,,inactive: -23.8%

Compound,Potency,"activity change, negative = growth inhibition"
Cc1ccc(S(=O)(=O)Nc2ccc3c(c2)C(=O)N([C@@H](C)CO)C[C@@H](C)[C@@H](CN(C)CC2CC2)OCCCC[C@@H](C)O3)cc1,"inconclusive [inhibitor, single point]",
Cc1ccc2cccc(O)c2n1,active: 7.08 µM,
O=c1c(CCc2ccccc2)nc2cnc(N3CCNCC3)nc2n1C1CC1,"inconclusive [inhibitor, single point]",
CSCCC(=O)N(C)CC1CCCN(CCc2cccc(C(F)(F)F)c2)C1 (stereo not given),,inactive: -8.21%
O=C(Cn1cc(C(=O)C(F)(F)F)c2ccccc21)Nc1ccccc1F,,inactive: 8.21%
CC(CCc1ccc(O)cc1)NCc1ccc(Cl)cc1Cl (stereo not given),"inconclusive [inhibitor, single point]",
O=C(Nc1cc(Cl)ccc1Oc1ccccc1)c1ccccc1F,"inconclusive [inhibitor, partial curve, poor fit]",
CC(=O)Nc1cc(-c2ccc(S(C)(=O)=O)cc2)cn2c(-c3ccc(F)c(Cl)c3)cnc12,active: 18.4 µM,
N#Cc1ccc(-c2nc3ccc(Br)cn3c2Cc2cccc(F)c2)cc1,"inconclusive [inhibitor, single point]",
Cc1ccc2[nH]c(=O)c(CN(CC3CCCO3)C(=O)c3ccncc3)cc2c1 (stereo not given),,inactive: 0.614%
Cc1cc(OCC(=O)N2CCN(c3ccccn3)CC2)c(C)cc1Br,"inconclusive [inhibitor, single point]",
CC1CCN(S(=O)(=O)c2ccc(C(=O)Nc3nnc(-c4ccccn4)o3)cc2)CC1,"inconclusive [inhibitor, single point]",
Cc1noc(C)c1C(=O)OCC(=O)N1CCc2ccccc21,,inactive: -14.9%
Oc1cccc(/C=N/Nc2ccc(Cl)nn2)c1O,active: 0.092 µM,
CN(CCc1ccccc1)C(=O)c1ccc(NC(=O)Cc2cccc(NC(=O)C3CCN(C(=O)CCc4ccccc4)CC3)c2)cc1,"inconclusive [inhibitor, single point]",
Cc1cc(C)cc(OCC(=O)Nc2nc(-c3ccccn3)cs2)c1,"inconclusive [inhibitor, single point]",
CCC(C(=O)NCCCN1CCN(C)CC1)n1nc(C)c2sc3ccccc3c2c1=O (stereo not given),,inactive: 2.22%
COc1ccc(CC(=O)N2CCc3cc(OC)c(OC)cc3C2COc2cc(C)cc(C)c2)cc1OC (stereo not given),active: 18.4 µM,
CC(=O)N1CCc2cc(S(=O)(=O)NCCN3CCC(C)CC3)ccc21,,inactive: -14.5%
COC(=O)c1c(N)sc2c1CCN(c1ncc(C(F)(F)F)cc1Cl)C2,"inconclusive [inhibitor, single point]",
COc1cccc(Cn2c(Oc3cc(C)cc(C)c3)nc3c2c(=O)n(C)c(=O)n3C)c1,"inconclusive [inhibitor, single point]",
CS(=O)(=O)N(CC(=O)Nc1ccc(S(=O)(=O)N2CCCC2)cc1)c1cccc(F)c1,"inconclusive [inhibitor, single point]",
